Screen size: about 48,000 compounds; about 1,200 (2.5%) were called active. About 2% were inconclusive and are not listed.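 The calls were made as follows: active = activation of at least 60% and not above a set upper limit (about 1 call in 100 departs from these limits); inconclusive = activation of 40% to 60%, or above that upper limit; inactive = activation under 40%.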 This is one part of the list.

Chain of UniProt O75388 (O75388 whole entry, looked up): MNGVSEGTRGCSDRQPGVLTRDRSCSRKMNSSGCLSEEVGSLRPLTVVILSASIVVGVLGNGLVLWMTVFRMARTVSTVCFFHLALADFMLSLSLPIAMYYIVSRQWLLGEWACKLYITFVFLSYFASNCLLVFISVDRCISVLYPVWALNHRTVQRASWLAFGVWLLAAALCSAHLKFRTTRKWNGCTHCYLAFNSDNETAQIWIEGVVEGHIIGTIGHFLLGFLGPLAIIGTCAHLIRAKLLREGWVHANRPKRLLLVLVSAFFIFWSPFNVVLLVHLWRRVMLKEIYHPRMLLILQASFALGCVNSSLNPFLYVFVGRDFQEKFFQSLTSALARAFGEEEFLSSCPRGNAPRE

In the assay the target is Probable G-protein coupled receptor 32 (Homo sapiens) (UniProt O75388). As to the kind of experiment: qHTS for Agonists of Human Resolvin D1 Receptor DRV1. Also: 0% is about no effect. The note with it: CHO-K1 GPR32 beta-arrestin PathHunter luminescence, 90 min; at 76.9 µM; active compounds read high; zero percent set by DMSO-only wells. In outline:
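Step 1: seed CHO-K1 GPR32 beta-arrestin cells, 2,500/well, overnight at 37 °C. Step 2: add compounds, 90 min at 37 °C. Step 3: detection reagent, 1 h ambient, then luminescence.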
Turning to `CCOc1ccc(OCC)c(NC(=O)c2cnc3c(-c4ccccc4)c(C)nn3c2C)c1`, the activation was inactive: -20.8%. In the case of `CC(C)Cc1ccc(S(=O)(=O)Nc2ccc3[nH]c(=O)[nH]c3c2)cc1` it was inactive: 12.8%. As for `O=c1c2oc3ccccc3c2n(Cc2cccc(Cl)c2)c(=O)n1Cc1ccc2c(c1)OCO2`, the figure is inactive: -5.92%; as for `COC(=O)c1cc2oc(C)cc2n1Cc1cccc(Cl)c1`, inactive: -29.8%.

In the case of `Cc1ccc(-n2c(=O)c3c(c4cc(C)ccc4n3C)n(CC(=O)NCCC3=CCCCC3)c2=O)cc1`, the activation is inactive: -13.6%. As for `O=C(NCc1cccc(Cl)c1)c1ccc(CS(=O)Cc2ccccc2Cl)o1` (stereo not drawn), the figure is inactive: -15%; as for `COc1ccccc1OCC(=O)NCC1(N2CCOCC2)CCCCC1`, inactive: -4.16%; as for `CC(C)(C=O)Cc1cc(C(C)(C)C)c(O)c(C(C)(C)C)c1`, inactive: -30.8%. With `CCOC(=O)c1nc(Nc2ccc(OC)cc2)c2ccccc2n1`, the activation was inactive: -2.93%.

For the compound `O=S(=O)(NCc1ccc(F)cc1)c1ccc2[nH]c3c(c2c1)CCCCC3`, the activation is inactive: 6.8%. In the case of `Cc1ccccc1Nc1c(-c2cccc(O)c2)nc2ccc(Br)cn12` it was inactive: -21.8%; in that of `CC(C)CCNC(=O)c1ccc(Cn2c(=O)c3cccn3c3cccnc32)cc1`, inactive: -9.01%. As for `CCOc1ccc(CNC(=O)c2ccc3c(c2)sc2nc(-c4ccc(OC)cc4)cn23)cc1`, the figure is inactive: 13%. In the case of `COc1cc(OC)c(NC(=O)CSC2=Nc3ccccc3N=C(c3ccc(F)cc3)C2)cc1Cl` it was inactive: 5.43%; in that of `Cc1cccc(Nc2nc(Nc3cccc(C)c3)nc(N3CCOCC3)n2)c1`, inactive: -23.9%. For the compound `Cc1cc2c(n1-c1ccc(C(=O)NCC(C)c3ccccc3)cc1)CCCC2` (stereo not drawn), the activation was inactive: -18.6%. In the case of `Cc1ccc(-c2nn(-c3cccc([N+](=O)[O-])c3)c3c2cnc2ccc(F)cc23)cc1` it was inactive: 12.3%; in that of `CC(=O)[C@H]1CCC2C3CC=C4C[C@@H](OS(=O)(=O)O)CC[C@]4(C)C3CC[C@@]21C` (stereo partly drawn), inactive: 14.3%; in that of `Cc1sc(C2C(C#N)=C(N)N(c3cccc(Cl)c3)C3=C2C(=O)CCC3)cc1CN1CCOCC1` (stereo not drawn), inactive: -1.1%.

Consider `Cc1ccc(CNC(=O)c2cc(S(=O)(=O)N3CCCC(C)C3)cn2C)cc1` (stereo not drawn), for which the activation was inactive: -1.82%. As for `COc1ccc(-n2c(=O)c3c(c4cc(OC)ccc4n3C)n(CC(=O)NCC3CCCO3)c2=O)cc1` (stereo not drawn), the figure is inactive: 22.3%; as for `CCN(CCCNC(=O)c1ccc(Sc2ccc(C)cc2)c(NC(C)=O)c1)c1cccc(C)c1`, inactive: -19.5%. As for `COc1ccc(-c2n[nH]c3c2C(c2ccc(Cl)cc2Cl)NC3=O)cc1` (stereo not drawn), the figure is active: 87%; as for `CC(CCO)Nc1nc2c(c(=O)n(C)c(=O)n2C)n1Cc1ccc(Br)cc1` (stereo not drawn), inactive: -9.66%.

Take `Cc1ccc(F)cc1NC(=O)CCc1c(C)nn(-c2ccc(N3CCCCC3)nn2)c1C`: the activation is inactive: -4.48%. As for `CCOc1cccc(C(=O)Nc2ccc3oc(-c4ccc(C(C)(C)C)cc4)nc3c2)c1`, the figure is inactive: -1.55%; as for `COc1ccc(NC(=O)Cn2c(=O)n(-c3cccc(C)c3)c(=O)c3c2c2cc(C)ccc2n3C)cc1OC`, inactive: 18.2%; as for `Cc1ccc2oc(-c3ccc(C)c(NC(=O)c4ccc5c(c4)OCCO5)c3)nc2c1`, inactive: 0.0312%. Turning to `C#CCSc1nc2sc3c(c2c(=O)n1-c1cccc(OC)c1)CCN(C(C)=O)C3`, the activation is inactive: -3.76%. As for `Cc1ccc(S(=O)(=O)Nc2ccc(-c3ccc(N4CCCCCC4)nn3)cc2)cc1C`, the figure is inactive: -6.38%; as for `CCc1nn2c(-c3ccco3)ccnc2c1-c1ccc(F)cc1`, inactive: -4.52%. As for `CCOC(=O)c1ccc(-c2ccc(/C=C(\C#N)C(=O)Nc3c(C)cccc3Cl)o2)cc1`, the figure is inactive: -30.4%; as for `COc1cc(Cl)c(NC(=O)c2cc(S(=O)(=O)N3CCOCC3)cn2C)c(OC)c1`, inactive: -19.3%. As for `O=c1c2sc3ccccc3c2n(Cc2ccc(F)cc2)c(=O)n1Cc1ccccc1`, the figure is inactive: 10.2%; as for `CCc1cccc(CC)c1NC(=O)CCS(=O)(=O)c1ccc(Br)cc1`, inactive: -11.3%; as for `COc1ccc(-c2ccc(NS(=O)(=O)c3ccccc3)cc2)nn1`, inactive: 4.22%. Consider `CCOc1ccc(-c2cc(C(=O)NCc3ccc(OCC)c(OC)c3)[nH]n2)cc1`, for which the activation is inactive: -3.64%. As for `Cc1ccc(NC(=O)CSc2ncccc2C(=O)Oc2ccccc2Cl)cc1Cl`, the figure is inactive: -6.56%; as for `COc1ccc2[nH]cc(CCNC(=O)Nc3c(C)cccc3C)c2c1`, inactive: 32.2%. In the case of `Cc1cc(C)n2nc(SCC(=O)Nc3ccc(O)cc3)nc2n1` it was inactive: -2.75%; in that of `Cc1ccccc1-c1nc2c(c(SCc3cccc(Cl)c3)n1)Cc1c(CO)cnc(C)c1O2`, inactive: 7.31%. For the compound `Cc1cc(NC(=O)CN(C)S(=O)(=O)c2ccc3c(c2)CCCC(=O)N3)ccc1Br`, the activation was inactive: 49.2%.

`CCOC(=O)c1cc(-c2ccccc2)n(CCC(=O)Nc2ccc(OC)c(Cl)c2)c1C`: the activation is inactive: -30.7%. As for `COc1cc(C)ccc1OCCSc1nc2ccc(NC(=O)c3ccc4c(c3)OCO4)cc2s1`, the figure is inactive: -2.39%; as for `COc1cc(-c2nc(Cn3nnc(C(=O)Nc4ccccc4C)c3C)c(C)o2)cc(OC)c1OC`, inactive: 17.3%; as for `CCc1ccc(NC(=O)Cn2c(=O)n(CCCC(=O)NCc3ccccc3OC)c(=O)c3ccccc32)cc1`, inactive: -6.24%. In the case of `Cc1ccc(C)c(NC(=O)c2ccc(=O)n(Cc3ccc(F)cc3)c2)c1`, the activation is inactive: 24.7%.

As for `COc1ccc(C)cc1NC(=O)c1ccc2c(c1)N(Cc1cccc(Cl)c1)C(=O)c1ccccc1S2=O` (stereo not drawn), the activation was inactive: -27.5%.

Regarding `CNC1CCCN(c2c(F)cc3c(=O)c(C(=O)O)cn(C4CC4)c3c2OC)C1` (stereo not drawn), the activation is inactive: -12%. As for `CC(=O)N1c2ccc(S(=O)(=O)N3CCCCCC3)cc2CC1C(=O)NCc1cccc(F)c1` (stereo not drawn), the figure is inactive: -26.4%; as for `Clc1cccc(N2CCN(c3nc4ccccc4c4nc(-c5cccnc5)nn34)CC2)c1`, inactive: 0.0211%; as for `Cc1ccc(S(=O)(=O)c2nc(-c3cccs3)oc2SC(C)c2ccccc2)cc1` (stereo not drawn), inactive: -24.7%. Regarding `CCS(=O)(=O)N1CCc2cc(C(=O)N3CCN(c4ccccc4)CC3)ccc21`, the activation was inactive: 23.8%.
